# The supplement of paper PMC7826260
# This is one part of the list. The data describe in vitro nicking of single-stranded DNA by Rep domains at 3 µM enzyme and 37 °C for 1 h; the strands have 90 letters, of which the middle is given. A value is the log2 ratio of uncut reads to the pool without enzyme; uncut sequences lie near 0, cut ones below; no hit call is given. Because reads are shares of a total, they shift together; where an enzyme cuts many sequences, the uncut ones exceed 0.
# Key:
# Experiment in all cases: uncleaved DNA left, log2 of reads against the no-enzyme library (log2 ratio); higher = less cleavage (more negative = more Rep cleavage of the k-mer); sequences stand for … in CTCGTCCG…ACCGGAGA
# [1] = test system: T1, Rep nickase domain of Muscovy duck circovirus
# T1 sequence (residues 1-111 of Rep, tag left off): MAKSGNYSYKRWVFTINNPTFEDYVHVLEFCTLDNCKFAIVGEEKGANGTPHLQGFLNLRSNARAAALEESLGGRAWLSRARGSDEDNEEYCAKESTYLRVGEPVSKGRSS
# Method: (§1)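 A pool of 90-nt single-stranded DNAs with seven random bases just before the constant AC of the nick site (name = the seven bases) was cut by 3 µM recombinant His6-SUMO-tagged Rep nickase domain (300 nM DNA, 50 mM HEPES pH 8.0, 50 mM NaCl, 1 mM MnCl2, 1 h, 37 °C, three replicates). Uncut DNA was amplified and sequenced.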
# [2] = test system: T2, Rep nickase domain of banana bunchy top virus
# T2 sequence (residues 1-94 of Rep, tag left off): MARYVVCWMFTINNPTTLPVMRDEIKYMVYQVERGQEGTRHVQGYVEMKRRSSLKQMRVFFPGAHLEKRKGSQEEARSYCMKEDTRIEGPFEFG
# Method: as §1
# [3] = test system: T3, Rep nickase domain of cabbage leaf curl virus
# T3 sequence (residues 1-116 of Rep, tag left off): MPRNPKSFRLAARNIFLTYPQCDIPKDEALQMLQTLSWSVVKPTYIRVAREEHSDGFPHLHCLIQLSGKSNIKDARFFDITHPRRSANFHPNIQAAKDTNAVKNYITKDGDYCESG
# Method: as §1
# [4] = test system: T4, Rep nickase domain of chickpea chlorotic dwarf virus
# T4 sequence (residues 1-124 of Rep, tag left off): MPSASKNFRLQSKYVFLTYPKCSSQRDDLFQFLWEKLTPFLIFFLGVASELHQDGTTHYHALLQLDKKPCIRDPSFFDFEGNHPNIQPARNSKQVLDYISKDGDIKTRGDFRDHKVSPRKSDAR
# Method: as §1
# [5] = test system: T5, Rep nickase domain of faba bean necrotic yellows virus
# T5 sequence (residues 1-98 of Rep, tag left off): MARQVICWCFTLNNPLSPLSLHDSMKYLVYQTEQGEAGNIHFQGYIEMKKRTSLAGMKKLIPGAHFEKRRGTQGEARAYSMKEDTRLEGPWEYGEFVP
# Method: as §1
# [6] = test system: T6, Rep nickase domain of maize striate mosaic virus
# T6 sequence (residues 1-117 of Rep, tag left off): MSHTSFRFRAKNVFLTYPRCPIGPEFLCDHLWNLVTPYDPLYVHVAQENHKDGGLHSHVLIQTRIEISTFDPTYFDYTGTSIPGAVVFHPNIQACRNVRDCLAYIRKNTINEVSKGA
# Method: as §1
# [7] = test system: T7, Rep nickase domain of porcine circovirus 2
# T7 sequence (residues 2-116 of Rep, tag left off): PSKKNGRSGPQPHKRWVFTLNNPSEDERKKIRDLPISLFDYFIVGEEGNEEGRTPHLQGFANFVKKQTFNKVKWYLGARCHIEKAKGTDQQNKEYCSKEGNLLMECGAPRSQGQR
# Method: as §1
# [8] = test system: T8, Rep nickase domain of tomato golden mosaic virus
# T8 sequence (residues 1-124 of Rep, tag left off): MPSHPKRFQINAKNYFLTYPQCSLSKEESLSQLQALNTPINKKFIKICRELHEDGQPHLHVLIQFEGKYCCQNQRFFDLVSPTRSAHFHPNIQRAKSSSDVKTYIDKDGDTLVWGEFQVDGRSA
# Method: as §1
# [9] = test system: T9, Rep nickase domain of tomato yellow leaf curl virus
# T9 sequence (residues 1-136 of Rep, tag left off): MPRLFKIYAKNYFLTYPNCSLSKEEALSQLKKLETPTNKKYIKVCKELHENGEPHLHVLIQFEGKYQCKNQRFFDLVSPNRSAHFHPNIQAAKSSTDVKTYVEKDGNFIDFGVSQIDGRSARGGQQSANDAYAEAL
# Method: as §1
# [10] = test system: T10, Rep nickase domain of wheat dwarf virus
# T10 sequence (residues 1-137 of Rep, tag left off): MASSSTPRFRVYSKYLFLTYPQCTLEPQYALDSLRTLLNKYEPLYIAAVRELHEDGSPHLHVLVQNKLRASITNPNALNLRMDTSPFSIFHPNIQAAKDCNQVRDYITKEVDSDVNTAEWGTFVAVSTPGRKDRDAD
# Method: as §1
Sequence,uncleaved DNA left (log2) [1],uncleaved DNA left (log2) [2],uncleaved DNA left (log2) [3],uncleaved DNA left (log2) [4],uncleaved DNA left (log2) [5],uncleaved DNA left (log2) [6],uncleaved DNA left (log2) [7],uncleaved DNA left (log2) [8],uncleaved DNA left (log2) [9],uncleaved DNA left (log2) [10]
AAATGTA,-1.43,0.0133,-1.86,-2.49,0.0719,-1.04,-2.69,-0.161,-0.0472,-0.543
TTATTCA,-0.126,0.0652,0.19,-0.36,-0.0957,0.0829,-0.182,-0.0383,0.0979,0.115
GAAACGA,0.0367,0.0439,0.155,0.222,-0.0289,-0.255,0.0777,-0.0345,0.0322,0.106
GTGTTCT,-0.0295,-0.0139,0.296,0.763,-0.061,1.81,-0.434,0.0287,0.0575,0.134
GCAGACG,-0.208,-0.0656,-0.657,-0.399,0.0042,-0.79,0.123,-0.0481,-0.0939,-0.0915
GCCAGCC,0.0519,-0.0133,0.0869,0.315,0.0365,-0.293,0.121,0.0021,-0.0231,0.0324
GGATCTA,0.0503,0.0643,0.611,1.3,0.0294,1.93,0.0952,-0.112,0.0635,0.174
TCTTCTG,-0.0371,-0.133,-0.257,-0.231,-0.044,-0.491,0.0106,-0.0998,-0.208,-0.00488
AGTCTTA,-0.0786,0.047,0.155,-0.516,-0.142,-0.00623,-2.01,0.112,0.11,0.0527
CGAGGGT,-0.00883,0.136,0.183,1.23,0.0115,1.68,0.194,0.0564,0.0397,0.0736
TAGTAGA,0.0991,0.00263,0.108,-0.612,-0.0431,-0.821,-2.76,0.083,0.107,0.00648
TAGCTAA,-0.01,0.031,0.0536,-0.822,0.0261,-0.0412,-0.529,0.0515,0.0128,0.0644
TTTGTCA,0.0738,0.094,0.271,-0.0553,0.0588,-0.186,-0.0382,-0.0452,0.195,0.1
GCCCGCA,-0.0541,-0.0939,-0.134,0.00795,-0.0983,-0.415,-0.121,-0.109,-0.127,-0.171
AAAAACC,-0.0362,-0.0381,-0.123,-1.1,-0.0187,-0.705,-0.31,-0.00106,0.00303,0.00993
TTTAGAT,0.0943,0.0748,0.167,0.503,0.0467,1,0.079,0.119,0.0401,0.102
TACGTAA,0.103,0.0146,-0.0871,-0.816,0.0715,-0.581,0.0994,-0.0121,0.0038,-0.0351
TCGACTA,0.0105,-0.0285,0.0275,0.577,0.0346,1.44,-0.014,-0.0763,-0.0185,0.0368
TGGCAAG,0.0562,0.0472,-0.578,-0.238,0.0213,-0.849,0.215,0.00147,-0.0144,-0.0227
TTAATTT,-0.0885,0.022,0.212,-2.16,-0.093,-0.329,-0.387,-0.194,-0.0431,-0.279
AGTTCCA,-0.0302,-0.00997,0.173,-0.229,-0.0918,0.25,-0.506,-0.0524,0.0401,-0.00695
CAATGCA,-0.202,0.0152,-1.16,-1.43,0.0501,-1.29,-0.565,-0.102,0.135,-0.0986
TGATGAT,-0.227,0.038,0.283,0.692,0.0399,1.59,-0.568,-0.0299,-0.0114,0.0389
CAGTCTT,-3.03,-3.04,-0.955,-2.69,-3.11,-0.304,-4.31,-0.46,0.0777,-0.245
CAGCCGA,0.0526,-0.141,-0.46,-0.578,-0.108,-0.806,0.0487,0.0735,0.0324,-0.0983
TGAATCT,0.00913,0.00363,0.201,-1.86,-0.0496,-0.293,-0.182,-0.0537,0.0627,0.0524
CTTAGAG,0.16,0.104,-0.49,-0.452,0.14,-1.03,0.24,0.161,0.084,0.172
TTCTGGT,-0.263,-0.0234,0.254,0.219,0.0353,0.714,-1.17,0.0613,0.16,0.0513
TATACTC,0.0163,-0.0663,-0.0101,-1.3,0.0196,-0.385,-0.0366,-0.0798,-0.0277,0.014
CCGCTAC,0.0939,0.0368,-0.0563,-1.28,0.0614,-0.333,-0.0687,0.00482,-0.00481,-0.00957
